The other results are listed elsewhere or left out. The list includes weakly bound sequences.
What follows are sequences tested against T1, MBP-FoxP3dN (UniProt Q99JB6) (assay: PD-seq (MBP pull-down with sequencing)). Settings: 20 mM Tris-HCl pH 7.5, 100 mM NaCl, 1.5 mM MgCl2, 0.4 uM protein, 0.1 uM dsDNA library, 30 min, room temperature, amylose pull-down; high values mean tight binding; double strand, one strand shown.
T1 sequence: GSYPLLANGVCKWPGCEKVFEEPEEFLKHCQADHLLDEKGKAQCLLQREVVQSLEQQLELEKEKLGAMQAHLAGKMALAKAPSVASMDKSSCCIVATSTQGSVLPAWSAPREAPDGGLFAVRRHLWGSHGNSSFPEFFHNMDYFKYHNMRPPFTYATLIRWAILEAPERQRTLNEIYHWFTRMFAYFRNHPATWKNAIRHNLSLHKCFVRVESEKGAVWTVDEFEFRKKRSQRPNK

Row | Sequence | binding signal (RPM ratio (pull-down/input))
1 | GATGATTGTTCTCCCAGCTGATGAATTGCTCTGATCGAGTAAACAAATTTTCCTAATCTTTCTGTTCAAGCGCCATCTAC | 0.445
2 | GATGATTGTTCTCCCAGCTGATGAATTCGATCACTCGAGTAAACAAATTTTCCTAATCTTTCTGTTCAAGCGCCATCTAC | 0.483
3 | GATGATTGTTCTCCCAGCTGATGAATTGTTTTGATCGAGTAAACAAATTTTCCTAATCTTTCTGTTCAAGCGCCATCTAC | 4.03
4 | GATGATTGTTCTCCCAGCTGATGAATTCGTATTATCGAGTAAACAAATTTTCCTAATCTTTCTGTTCAAGCGCCATCTAC | 1.51
5 | GATGATTGTTCTCCCAGCTGATGAATTCTGCCGATCGAGTAAACAAATTTTCCTAATCTTTCTGTTCAAGCGCCATCTAC | 0.58
6 | GATGATTGTTCTCCCAGCTGATGAATTGTTGAGTTCGAGTAAACAAATTTTCCTAATCTTTCTGTTCAAGCGCCATCTAC | 0.89
7 | GATGATTGTTCTCCCAGCTGATGAATTACACAATTCGAGTAAACAAATTTTCCTAATCTTTCTGTTCAAGCGCCATCTAC | 0.716
8 | GATGATTGTTCTCCCAGCTGATGAATTCCAGTCATCGAGTAAACAAATTTTCCTAATCTTTCTGTTCAAGCGCCATCTAC | 0.476
9 | GATGATTGTTCTCCCAGCTGATGAATTGTGCATCTCGAGTAAACAAATTTTCCTAATCTTTCTGTTCAAGCGCCATCTAC | 8.03
10 | GATGATTGTTCTCCCAGCTGATGAATTCGACTTTTCGAGTAAACAAATTTTCCTAATCTTTCTGTTCAAGCGCCATCTAC | 0.443
11 | GATGATTGTTCTCCCAGCTGATGAATTCAACTTGTCGAGTAAACAAATTTTCCTAATCTTTCTGTTCAAGCGCCATCTAC | 0.487
12 | GATGATTGTTCTCCCAGCTGATGAATTATGGCTCTCGAGTAAACAAATTTTCCTAATCTTTCTGTTCAAGCGCCATCTAC | 0.643
13 | GATGATTGTTCTCCCAGCTGATGAATTCGCGACATCGAGTAAACAAATTTTCCTAATCTTTCTGTTCAAGCGCCATCTAC | 0.724
14 | GATGATTGTTCTCCCAGCTGATGAATTAATCCGGTCGAGTAAACAAATTTTCCTAATCTTTCTGTTCAAGCGCCATCTAC | 0.162
15 | GATGATTGTTCTCCCAGCTGATGAATTACTATCATCGAGTAAACAAATTTTCCTAATCTTTCTGTTCAAGCGCCATCTAC | 0.666
16 | GATGATTGTTCTCCCAGCTGATGAATTTACTGAGTCGAGTAAACAAATTTTCCTAATCTTTCTGTTCAAGCGCCATCTAC | 0.302

Row | Sequence | binding signal (RPM ratio (pull-down/input))
17 | GATGATTGTTCTCCCAGCTGATGAATTGAGCTTATCGAGTAAACAAATTTTCCTAATCTTTCTGTTCAAGCGCCATCTAC | 1.25
18 | GATGATTGTTCTCCCAGCTGATGAATTAGGGACTTCGAGTAAACAAATTTTCCTAATCTTTCTGTTCAAGCGCCATCTAC | 0.523
19 | GATGATTGTTCTCCCAGCTGATGAATTGACTTTATCGAGTAAACAAATTTTCCTAATCTTTCTGTTCAAGCGCCATCTAC | 0.608
20 | GATGATTGTTCTCCCAGCTGATGAATTCAGTGACTCGAGTAAACAAATTTTCCTAATCTTTCTGTTCAAGCGCCATCTAC | 0.828
21 | GATGATTGTTCTCCCAGCTGATGAATTCAAATTTTCGAGTAAACAAATTTTCCTAATCTTTCTGTTCAAGCGCCATCTAC | 0.27
22 | GATGATTGTTCTCCCAGCTGATGAATTGAATATCTCGAGTAAACAAATTTTCCTAATCTTTCTGTTCAAGCGCCATCTAC | 0.605
23 | GATGATTGTTCTCCCAGCTGATGAATTCTCATACTCGAGTAAACAAATTTTCCTAATCTTTCTGTTCAAGCGCCATCTAC | 0.405
24 | GATGATTGTTCTCCCAGCTGATGAATTGAAGCGGTCGAGTAAACAAATTTTCCTAATCTTTCTGTTCAAGCGCCATCTAC | 0.318
25 | GATGATTGTTCTCCCAGCTGATGAATTATATCCGTCGAGTAAACAAATTTTCCTAATCTTTCTGTTCAAGCGCCATCTAC | 0.399
26 | GATGATTGTTCTCCCAGCTGATGAATTAATAGGTTCGAGTAAACAAATTTTCCTAATCTTTCTGTTCAAGCGCCATCTAC | 0.487
27 | GATGATTGTTCTCCCAGCTGATGAATTGCCCCCCTCGAGTAAACAAATTTTCCTAATCTTTCTGTTCAAGCGCCATCTAC | 0.434
28 | GATGATTGTTCTCCCAGCTGATGAATTAATGTCGTCGAGTAAACAAATTTTCCTAATCTTTCTGTTCAAGCGCCATCTAC | 0.846
29 | GATGATTGTTCTCCCAGCTGATGAATTCTCTCATTCGAGTAAACAAATTTTCCTAATCTTTCTGTTCAAGCGCCATCTAC | 0.299
30 | GATGATTGTTCTCCCAGCTGATGAATTGACCGCATCGAGTAAACAAATTTTCCTAATCTTTCTGTTCAAGCGCCATCTAC | 0.887
31 | GATGATTGTTCTCCCAGCTGATGAATTGTGAATGTCGAGTAAACAAATTTTCCTAATCTTTCTGTTCAAGCGCCATCTAC | 1.32
32 | GATGATTGTTCTCCCAGCTGATGAATTAAGCCCGTCGAGTAAACAAATTTTCCTAATCTTTCTGTTCAAGCGCCATCTAC | 1.27

Reference: publication PMC12820563
